In the RNAGym collection of RNA variant scans (doi:10.7554/elife.90254):
The source gives no read counts; variants with many changes may rest on few reads.

B1: LINE1-mini (parent)
chain: GGCAGAGCUCAACACAGCGUGGCAAAGUGGCUGUGGCUAGACUGCC

Variants of: B1
Experiment: self-cleavage, relative activity (ratio to wild type); higher = more cleavage; in vitro, sequencing; the parent is a self-cleaving ribozyme

With GGCAGAGUUCAACACAGCGUGGCAAAGUGGAUGUAGCUAGACUGCC [C8U C31A G35A] as the variant, how does the self-cleavage read?
The self-cleavage was 0.08.

With GGCAGAGUUCAACACAGCGUGGGAAAGUGGCUGAGGCUAGACUGCA [C8U C23G U34A C46A] as the variant, how does the self-cleavage read?
The self-cleavage was 0.11.

With GGCAGAGUUAUACACAGCGUGGCAAAGUGGCUGUGGCUAGACUGCC [C8U C10A A11U] as the variant, how does the self-cleavage read?
Its self-cleavage is 0.03.

For GGCAGAGUUCAACACAGCGUGGCACAGUGGCUGUGGACAGACUGCC [C8U A25C C37A U38C], which self-cleavage is on record?
Its self-cleavage is 0.43.

For GGCAGAGUUCAACACAGCGUGGCAAGGUGGCUGUGGCUAGACUGGC [C8U A26G C45G], which self-cleavage is on record?
The self-cleavage was 0.35.

With GGCAGAGUUCAACACAGCUUGGCAAAGUGGCUGGGGCUAGACUGCC [C8U G19U U34G] as the variant, how does the self-cleavage read?
The self-cleavage was 0.37.

For GGCAGAGUUCAACACAGCGUGUCAAAAUGGCUGUGCCUAGACUCCC [C8U G22U G27A G36C G44C], which self-cleavage is on record?
Its self-cleavage is 0.07.

With GGCAGAGUUCAACACAGCGUAGGAAAGUGGCUGUGGCUACACUGCC [C8U G21A C23G G40C] as the variant, how does the self-cleavage read?
The self-cleavage was 0.15.

With GGCAGAGUUCAACACAGGGUGGCAAAGUGGAUGUGGCUAGACUGCU [C8U C18G C31A C46U] as the variant, how does the self-cleavage read?
Its self-cleavage is 0.02.

With GGCAGAGUUCAAUACAGCGUGGCAAAGUCGCUGUGGCUAGACUGCC [C8U C13U G29C] as the variant, how does the self-cleavage read?
The self-cleavage was 0.07.

For GGCAGAGUUCAACACAGCGUGGCAAAGUGGCUGUGGAUUGACUGCC [C8U C37A A39U], which self-cleavage is on record?
The self-cleavage was 0.01.

Which self-cleavage does the source give for GGCAGAGUUCAACACAGCGUGGCUAAGUGGCUGUGACUAGACUGCC [C8U A24U G36A] here?
The self-cleavage was 0.94.

With GGCAGAGUUCAAUACAGCGUGGCCAAGUGGCUGUGGCUAGACUUCA [C8U C13U A24C G44U C46A] as the variant, how does the self-cleavage read?
The self-cleavage was 0.04.

Which self-cleavage does the source give for GGCAGAGUUCAACACUGCGCGGCUAAGUGGUUGUGGCUAGACUGCC [C8U A16U U20C A24U C31U] here?
The self-cleavage was 0.05.

Which self-cleavage does the source give for GGCAGAGUUCAACACAUCGUGGCAAAGUGGCUGCGGCUUAACUGCC [C8U G17U U34C A39U G40A] here?
The self-cleavage was 0.03.

For GGCAGAGUUCAACACAGCGUGGCAAUGUGGCUGAGGCUAGACUGCC [C8U A26U U34A], which self-cleavage is on record?
Its self-cleavage is 0.06.

With GGCAGAGUUCAACACAGCGUCGCAAAGUGGCUGUGGGCAGACUUCC [C8U G21C C37G U38C G44U] as the variant, how does the self-cleavage read?
The self-cleavage was 0.01.

Which self-cleavage does the source give for GGCAGAGUUCAACACAGGGUGGUAAAGUGGCUGUUGCUAGACUGCC [C8U C18G C23U G35U] here?
Its self-cleavage is 0.08.

Which self-cleavage does the source give for GGCAGAGUUCAACACAGCCUGGCAAAUUGGCUGUGGCUAGACUGCU [C8U G19C G27U C46U] here?
The self-cleavage was 0.35.

Which self-cleavage does the source give for GGCAGAGUUUAACACAGCGUGGCAAAGUUGCUGUGGCUAGACUGCC [C8U C10U G29U] here?
Its self-cleavage is 0.05.

With GGCAGAGUUAAACACCGCGUGGCAUAGUGGCUGUGGCUAGACUGCC [C8U C10A A16C A25U] as the variant, how does the self-cleavage read?
Its self-cleavage is 0.07.

With GGCAGAGUUAAACACAGCGUGGCAAAUUGGCUGUGGCUAGACUGCC [C8U C10A G27U] as the variant, how does the self-cleavage read?
The self-cleavage was 0.

With GGCAGAGUUCAACACAGCGUAGCAAAGUUGUGGUGGCUAGACUUCC [C8U G21A G29U C31U U32G G44U] as the variant, how does the self-cleavage read?
The self-cleavage was 0.01.

Which self-cleavage does the source give for GGCAGAGUUCAACAAAGCGUGGCAAAGUGGCUGCGGCUAGACUGCC [C8U C15A U34C] here?
The self-cleavage was 0.03.

Which self-cleavage does the source give for GGCAGAGUUCAACAGAGCGUGGCAAAGUGGCUGUGGCUAAACUGCA [C8U C15G G40A C46A] here?
Its self-cleavage is 0.67.

With GGCAGAGUUCAACACAGCGUGGGAAAGUUGCUGUGGCUAGACUGCC [C8U C23G G29U] as the variant, how does the self-cleavage read?
The self-cleavage was 0.1.

For GGCAGAGUUCAACACAACGUGGCAAAGUGGAUGUGGCUAGACUGCC [C8U G17A C31A], which self-cleavage is on record?
The self-cleavage was 0.09.

With GGCAGAGUUUAGCACAGCGUGGCAAAGUGGCUGUUCCUAGACUGCC [C8U C10U A12G G35U G36C] as the variant, how does the self-cleavage read?
The self-cleavage was 0.02.

For GGCAGAGUUCAACACAGCGUCGCAAAGUGGCUGUGAAUAGACUGCC [C8U G21C G36A C37A], which self-cleavage is on record?
The self-cleavage was 0.48.

Which self-cleavage does the source give for GGCAGAGUUCAACACAUCGUGGGAAAGUGGCUGUGGCUAGACUGCA [C8U G17U C23G C46A] here?
The self-cleavage was 0.14.

For GGCAGAGUUCAACACAGCGUGGCUAAGUGGUUGUGGCUAGACUGCC [C8U A24U C31U], which self-cleavage is on record?
The self-cleavage was 0.07.

With GGCAGAGUUCAACUCACCGUGGCAAAGUGGCUGUGGCUAGACUGCC [C8U A14U G17C] as the variant, how does the self-cleavage read?
The self-cleavage was 0.3.

Which self-cleavage does the source give for GGCAGAGUUCAAUUCAGCUGCGCAAAGUGGCUGUGGCUAGACUGGC [C8U C13U A14U G19U U20G G21C C45G] here?
Its self-cleavage is 0.19.

For GGCAGAGUUAAACUCAGCGUGGCAAAGUGGCUGUGGCUAGACUGCC [C8U C10A A14U], which self-cleavage is on record?
The self-cleavage was 0.01.

With GGCAGAGUUCAACACAGCGUGGCAACGUGGCUGAGGCUAGUCUGCC [C8U A26C U34A A41U] as the variant, how does the self-cleavage read?
Its self-cleavage is 0.14.

For GGCAGAGUUCAACACGGCGUGGCAAAGUUGCAGUGGCUAAACUGCC [C8U A16G G29U U32A G40A], which self-cleavage is on record?
The self-cleavage was 0.05.

Which self-cleavage does the source give for GGCAGAGUUUAACACAGCGUGGCAAAGUGGUUGUGGCUAGACAGCC [C8U C10U C31U U43A] here?
The self-cleavage was 0.03.

With GGCAGAGUUCAAAACAGCGUGGCAAAGUGGCUGUGGCAAUACUGCC [C8U C13A U38A G40U] as the variant, how does the self-cleavage read?
The self-cleavage was 0.18.

Which self-cleavage does the source give for GGCAGAGUUCAACUCAGCGUGACAAAGUGUCUGUGGCUAGACUGCC [C8U A14U G22A G30U] here?
Its self-cleavage is 0.24.

Which self-cleavage does the source give for GGCAGAGUUCAACACAGAGUGGGAAAGUGGCUGUGGCUAGACUGCC [C8U C18A C23G] here?
Its self-cleavage is 0.33.

Which self-cleavage does the source give for GGCAGAGUUCAACACAGUGUGGCAAAGUGGCUGUGGCUGGACUGCC [C8U C18U A39G] here?
Its self-cleavage is 0.02.

For GGCAGAGUUAAACACAGCGUGACAAAGUGGCUGUGGCUAGACUACA [C8U C10A G22A G44A C46A], which self-cleavage is on record?
Its self-cleavage is 0.

For GGCAGAGUUCAACACUGCCUGGCUAAGUCGCUGUCGCUAGACUGCC [C8U A16U G19C A24U G29C G35C], which self-cleavage is on record?
The self-cleavage was 0.

With GGCAGAGUUCAACACAGCGUGGGAAAGUGCCUGUCGCUGAACUGCC [C8U C23G G30C G35C A39G G40A] as the variant, how does the self-cleavage read?
Its self-cleavage is 0.08.

With GGCAGAGUUCAACACAGCGUGGCGAAGCGACUGUGGCUAGACUGCC [C8U A24G U28C G30A] as the variant, how does the self-cleavage read?
Its self-cleavage is 0.02.

With GGCAGAGUUCAACAAAGCGUGGCAAAGUGACUCUGGCUAGACUGCC [C8U C15A G30A G33C] as the variant, how does the self-cleavage read?
The self-cleavage was 0.03.

Which self-cleavage does the source give for GGCAGAGUUCAACACACCGUGGUAAAGUGGCUGUGGCUAGACUGCC [C8U G17C C23U] here?
Its self-cleavage is 0.17.

With GGCAGAGUUCAAGACAGCGUUGCAAAGUCGCUGUGGCGAGAAUGCC [C8U C13G G21U G29C U38G C42A] as the variant, how does the self-cleavage read?
The self-cleavage was 0.02.

For GGCAGAGUUCAACACAGCAUCGCAAAGUGGCUGUGGCUAGACUGCC [C8U G19A G21C], which self-cleavage is on record?
The self-cleavage was 0.01.

With GGCAGAGUUCAACACAGCGUGGUACAGUGGCUGUGGCUAGACUGCC [C8U C23U A25C] as the variant, how does the self-cleavage read?
The self-cleavage was 0.05.

Which self-cleavage does the source give for GGCAGAGUUCAACACAGACUGGCAAAGUGGCUGUGGCUAGACUGCC [C8U C18A G19C] here?
Its self-cleavage is 0.19.

Which self-cleavage does the source give for GGCAGAGUUUAACACAGAGUUGCAAAGUGGCUGUGGCUAGACUGCC [C8U C10U C18A G21U] here?
Its self-cleavage is 0.09.

With GGCAGAGUUCAACACAGCGUGGCAAUGUGGCUUUGGCUAGACUGCC [C8U A26U G33U] as the variant, how does the self-cleavage read?
The self-cleavage was 0.51.

Which self-cleavage does the source give for GGCAGAGUUCAACACAGCGUGGGAAAGUGGCCGUGGCAAGACUGUC [C8U C23G U32C U38A C45U] here?
Its self-cleavage is 0.02.

With GGCAGAGUUCAAUACAGCGUGGCAAAGUGGCUGUGGCUAGAUUGCC [C8U C13U C42U] as the variant, how does the self-cleavage read?
The self-cleavage was 0.04.

For GGCAGAGUUGAACACAGCGUGGCAAAGUGGCUGUGGCUAGAUUGCC [C8U C10G C42U], which self-cleavage is on record?
The self-cleavage was 0.02.
